Test [1] deals with T1, human PTK-7 on cells (OV90-PTK-7, NCI-H446, OVCAR-3) (human, UniProt Q13308 31-1070).
T1 sequence: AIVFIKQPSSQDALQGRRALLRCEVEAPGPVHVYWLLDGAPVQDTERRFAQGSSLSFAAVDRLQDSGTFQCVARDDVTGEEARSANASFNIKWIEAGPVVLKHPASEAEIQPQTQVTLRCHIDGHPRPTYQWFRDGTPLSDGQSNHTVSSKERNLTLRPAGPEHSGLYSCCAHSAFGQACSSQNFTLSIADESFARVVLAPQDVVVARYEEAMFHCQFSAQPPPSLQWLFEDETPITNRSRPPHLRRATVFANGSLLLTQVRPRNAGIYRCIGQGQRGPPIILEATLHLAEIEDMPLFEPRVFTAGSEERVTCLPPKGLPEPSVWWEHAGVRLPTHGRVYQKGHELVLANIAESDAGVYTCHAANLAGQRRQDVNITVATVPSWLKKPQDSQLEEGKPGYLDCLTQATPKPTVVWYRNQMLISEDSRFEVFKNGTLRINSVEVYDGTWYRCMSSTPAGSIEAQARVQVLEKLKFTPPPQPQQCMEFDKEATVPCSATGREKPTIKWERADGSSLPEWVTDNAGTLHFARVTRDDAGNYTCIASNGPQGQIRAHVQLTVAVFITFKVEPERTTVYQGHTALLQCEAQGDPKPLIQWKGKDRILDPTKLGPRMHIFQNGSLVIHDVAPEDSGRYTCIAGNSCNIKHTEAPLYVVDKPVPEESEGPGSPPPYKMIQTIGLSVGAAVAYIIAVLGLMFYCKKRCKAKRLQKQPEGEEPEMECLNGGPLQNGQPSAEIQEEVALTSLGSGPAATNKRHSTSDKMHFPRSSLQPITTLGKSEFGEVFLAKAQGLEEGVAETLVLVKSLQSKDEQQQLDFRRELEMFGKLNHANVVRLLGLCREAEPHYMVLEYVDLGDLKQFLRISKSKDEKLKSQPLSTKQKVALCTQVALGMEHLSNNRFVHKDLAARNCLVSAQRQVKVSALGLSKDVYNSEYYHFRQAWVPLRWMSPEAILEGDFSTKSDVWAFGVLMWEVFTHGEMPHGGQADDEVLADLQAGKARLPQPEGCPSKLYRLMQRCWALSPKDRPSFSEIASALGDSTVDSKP
Put plainly: cell-based or functional assay.

Test [2] addresses T2, recombinant human PTK7 (Acro Biosystems Cat. No. PT7-H52H3) (human, UniProt Q13308 31-704).
T2 construct: Bought recombinant protein; also called human PTK7 analyte
T2 sequence: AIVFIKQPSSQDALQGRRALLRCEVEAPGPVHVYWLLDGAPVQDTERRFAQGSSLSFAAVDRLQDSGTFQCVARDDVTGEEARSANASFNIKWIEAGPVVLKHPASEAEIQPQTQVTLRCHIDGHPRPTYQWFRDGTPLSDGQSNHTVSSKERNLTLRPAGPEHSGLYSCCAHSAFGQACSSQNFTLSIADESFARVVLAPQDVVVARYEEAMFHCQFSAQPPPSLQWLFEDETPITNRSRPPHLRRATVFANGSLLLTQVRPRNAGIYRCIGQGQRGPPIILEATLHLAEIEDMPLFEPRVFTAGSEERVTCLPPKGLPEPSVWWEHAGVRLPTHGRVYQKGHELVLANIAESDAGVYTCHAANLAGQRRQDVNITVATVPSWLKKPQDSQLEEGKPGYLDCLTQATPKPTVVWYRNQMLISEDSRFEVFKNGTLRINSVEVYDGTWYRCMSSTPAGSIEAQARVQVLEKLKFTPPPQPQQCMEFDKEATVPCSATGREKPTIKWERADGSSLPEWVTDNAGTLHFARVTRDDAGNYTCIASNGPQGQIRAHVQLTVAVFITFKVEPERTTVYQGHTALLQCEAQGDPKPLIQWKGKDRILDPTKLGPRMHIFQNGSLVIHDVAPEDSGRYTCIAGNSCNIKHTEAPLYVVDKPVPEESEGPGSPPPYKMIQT
Put plainly: SPR, Biacore 8K+, ADC captured by anti-human Fc, human PTK7 as analyte, 37 C, 1:1 model. How it is done:
A Biacore 8K+ instrument (Cytiva, Marlborough, MA) was used to determine kinetics and affinity parameters for the binding interactions of ADCs binding to recombinant human PTK7 (Acro Biosystems Cat. No. PT7-H52H3, Newark, DE).
In each analysis cycle, a different ADC was captured on flow cell 2 of each channel by injecting a 5 μg/mL solution at 10 μL/min for 2 minutes. After capture, the same analyte was injected on flow cells 1 and 2 in all 8 channels for 2 minutes at 30 μL/min and dissociation was monitored for 10 minutes. After dissociation, all surfaces were regenerated with three consecutive 1-minute injections of 75 mM phosphoric acid at 10 μL/min. ADC capture and analyte cycles were repeated to obtain human PTK7 analyte binding of each ADC at analyte concentrations of 0, 2.47, 7.41, 22.2, 66.7, 200, and 600 nMs.
Sensorgram data were reference subtracted and blank subtracted, then globally fit with the default 1:1 binding model in Biacore Insight Evaluation Software v3.0.12.15655, as shown in Table 4.

B1: Ab2-PSAR10-VA-exatecan (other)
heavy: QVQLQESGPGLVKPSETLSLTCTVSGGSISTYYWSWIRQPAGKGLEWIGRIYTSGLTNYNPSLKSRVTMSVDTSKNQFSLKLSSVTAADTAVYYCARDPHYYDGSGFDYWGQGTLVTVSSASTKGPSVFPLAPSSKSTSGGTAALGCLVKDYFPEPVTVSWNSGALTSGVHTFPAVLQSSGLYSLSSVVTVPSSSLGTQTYICNVNHKPSNTKVDKRVEPKSCDKTHTCPPCPAPEAAGGPSVFLFPPKPKDTLMISRTPEVTCVVVSVSHEDPEVKFNWYVDGVEVHNAKTKPREEQYNSTYRVVSVLTVLHQDWLNGKEYKCKVSNKALPAPIEKTISKAKGQPREPQVYTLPPSREEMTKNQVSLTCLVKGFYPSDIAVEWESNGQPENNYKTTPPVLDSDGSFFLYSKLTVDKSRWQQGNVFSCSVMHEALHNHYTQKSLSLSPGK
light: [sequence of about 100 residues omitted][sequence of about 120 residues omitted]
modifications: PSAR10-VA-exatecan linker-payload (Formula XV) on cysteine thiols after full reduction of the antibody (DAR 8 procedure); positions not stated for this ADC
notes: Antibody-drug conjugate of Ab2; also called Ab2-VA-Exatecan
As usually defined, the Kd is the constant that tells how readily two partners part at equilibrium. For orientation: koff means the first-order rate constant of dissociation. As a reminder, the kon is a measure of how fast the partners come together. Take B1: in test [1], the “Cytotoxicity IC50, OVCAR-3 cells (CellTiter-Glo, 7 days)” value came out at 0.00484 µM. Besides, in test [2], the Kd came to 0.0742 µM, the koff came out at 0.0134 s⁻¹ and the kon is 181000 M⁻¹ s⁻¹.

(Values after patent US20250332277A1 (Eli Lilly, published 2025).)
